The list shows a part of the results. Sequences were assembled here from the parent chain. Inactive controls read about 0.05.
B1: TEV protease; numbered along this chain (parent)
chain: MGESLFKGPRDYNPISSSICHLTNESDGHTTSLYGIGFGPFIITNKHLFRRNNGTLVVQSLHGVFKVKDTTTLQQHLVDGRDMIIIRMPKDFPPFPQKLKFREPQREERICLVTTNFQTKSMSSMVSDTSCTFPSGDGIFWKHWIQTKDGQCGSPLVSTRDGFIVGIHSASNFTNTNNYFTSVPKNFMELLTNQEAQQWVSGWRLNADSVLWGGHKVFMVKPEEPFQPVKEATQL

Variants of: B1
Experiment: raw area under fraction-flipped curve 0-4 h after induction (AUC4h, not background-subtracted), DNA-recorder readout of cleavage of the substrate (dimensionless); higher = more cleavage of the substrate by the protease variant
Details: temperature: 34 °C; time window: 0-4 h after rhamnose induction
Protocol: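 In vivo DNA recorder in E. coli TOP10(DE3) ΔrhaA at 34 °C. Each TEVp single-site mutant (parent TEVp 0) is paired with a single-site variant of the 7-mer TEVs (canonical ENLYFQ|S). The substrate sits between flexible linkers in a Bxb1-sfGFP-TEVs-SsrA fusion, so cleavage stabilises Bxb1 and speeds flipping of a recombination array, read by NGS. The value is the raw area under the fraction-flipped curve over 0-4 h after rhamnose induction (AUC4h), with ≥20 reads per time point. It is not background-subtracted; inactive controls average about 0.047.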
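Further: Bxb1 expression induced with 0.2% (w/v) L-rhamnose at OD600 near 0.5, cultures sampled hourly, flipped fraction per protease–substrate barcode pair counted by paired-end Illumina sequencing.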

Row | Variant | area with substrate ENLYFQA | area with substrate ENLYFQC | area with substrate ENLYFQE | area with substrate ENLYFQG | area with substrate ENLYFQL | area with substrate ENLYFQM | area with substrate ENLYFQN | area with substrate ENLYFQQ | area with substrate ENLYFQS | area with substrate ENLYFQT | area with substrate ENLYFQW | area with substrate ENLYFQY | area with substrate ENLYFQD | area with substrate ENLYFQF | area with substrate ENLYFQH | area with substrate ENLYFQK | area with substrate ENLYFQP | area with substrate ENLYFQI | area with substrate ENLYFQR | area with substrate ENLYFQV
1 | E108N | 0.0705 | 0.0758 | 0.0517 | 0.0714 | 0.0545 | 0.0488 | 0.062 | 0.0641 | 0.0744 | 0.0785 | 0.0476 | 0.0506 |  |  |  |  |  |  |  | 
2 | E108P | 0.0609 | 0.0443 |  |  |  | 0.0535 |  |  | 0.0614 |  | 0.0258 |  | 0.049 | 0.0437 | 0.0503 | 0.0481 | 0.0519 |  |  | 
3 | E108Y | 0.0639 | 0.106 |  | 0.0485 | 0.0553 | 0.0562 | 0.0482 | 0.0559 | 0.0616 |  | 0.0468 |  | 0.0646 |  | 0.0625 |  |  | 0.0616 | 0.0619 | 0.0496
4 | R109C | 0.102 | 0.121 |  | 0.0677 | 0.0747 | 0.0725 | 0.0763 |  | 0.0955 | 0.0785 |  |  | 0.0859 |  | 0.0843 |  |  |  | 0.053 | 0.0641
5 | V113D | 0.038 | 0.0389 |  | 0.0514 | 0.0455 | 0.0464 | 0.0517 | 0.041 | 0.0493 | 0.0541 | 0.0451 | 0.0622 |  | 0.0591 | 0.0519 | 0.0506 | 0.0564 |  | 0.0542 | 0.0568
6 | V113H | 0.132 | 0.11 | 0.053 | 0.129 | 0.0575 | 0.11 | 0.0662 | 0.0632 | 0.0994 | 0.0748 | 0.0635 | 0.0635 | 0.0689 | 0.0867 |  | 0.0695 | 0.0619 | 0.0201 | 0.0621 | 0.0562
7 | V113L | 0.0976 | 0.109 |  | 0.119 | 0.0688 | 0.08 | 0.0795 |  | 0.102 | 0.0594 | 0.0728 | 0.0532 | 0.0312 | 0.0796 | 0.0741 | 0.0524 |  | 0.0594 | 0.0608 | 0.0576
8 | V113N | 0.0393 |  | 0.0913 | 0.0698 |  |  |  |  | 0.0642 | 0.0609 | 0.031 | 0.0554 | 0.04 |  | 0.0551 | 0.0508 | 0.0588 | 0.0495 | 0.0532 | 0.037
9 | T114M | 0.105 |  |  |  | 0.0658 | 0.0841 | 0.0663 | 0.0957 | 0.101 |  |  | 0.076 | 0.0761 |  |  | 0.0682 | 0.0592 |  | 0.0703 | 
10 | T115C | 0.1 | 0.113 |  | 0.0894 | 0.0535 | 0.0864 |  | 0.0594 | 0.104 | 0.0698 | 0.0777 | 0.0815 | 0.0756 |  | 0.0791 |  | 0.0641 |  | 0.0694 | 0.0655
11 | N116A | 0.129 | 0.15 |  |  | 0.0624 | 0.0697 | 0.0727 |  | 0.1 | 0.058 |  | 0.0725 | 0.0665 | 0.0827 | 0.0712 | 0.0586 | 0.0548 | 0.0582 | 0.0737 | 
12 | F117M | 0.108 |  |  | 0.0961 |  | 0.099 |  |  | 0.104 |  |  |  |  |  |  |  |  | 0.079 | 0.0664 | 0.0423
13 | Q118A | 0.0924 | 0.0813 |  | 0.0852 | 0.0643 | 0.0636 | 0.0799 |  | 0.104 |  | 0.0551 |  | 0.0729 |  |  | 0.0531 | 0.0598 | 0.054 | 0.0077 | 0.0623
14 | Q118H | 0.0563 | 0.129 |  |  | 0.0603 |  |  |  | 0.0979 | 0.0741 |  |  |  | 0.0978 | 0.0823 | 0.0832 |  |  | 0.0578 | 
15 | Q118N | 0.11 | 0.15 |  | 0.0802 | 0.054 | 0.0946 |  | 0.0598 | 0.105 | 0.0652 |  | 0.0827 |  | 0.071 | 0.106 | 0.0696 |  | 0.066 | 0.0519 | 0.0473
16 | M122P | 0.088 | 0.0997 |  | 0.106 | 0.0666 |  | 0.0735 | 0.0821 | 0.107 | 0.0715 |  | 0.0589 | 0.0801 | 0.0711 | 0.0749 | 0.115 |  | 0.0557 | 0.0636 | 0.0472
17 | M122Y | 0.0891 | 0.12 |  | 0.0753 | 0.0635 | 0.0276 | 0.0734 | 0.063 | 0.104 | 0.0557 | 0.0656 |  |  | 0.0498 | 0.0773 | 0.0548 |  | 0.058 | 0.0545 | 0.0573
18 | V126G | 0.123 | 0.0901 |  |  | 0.0566 | 0.111 | 0.0873 |  | 0.114 |  | 0.0762 |  |  |  |  | 0.0637 |  |  | 0.0482 | 0.0578
19 | D128H | 0.101 | 0.158 |  | 0.124 | 0.0578 |  | 0.0977 | 0.0652 | 0.122 | 0.0787 | 0.0608 |  | 0.0758 | 0.0641 | 0.0898 |  |  | 0.0621 | 0.0778 | 
20 | T129P | 0.0792 | 0.109 | 0.0471 | 0.0958 | 0.0468 | 0.0903 | 0.0659 |  | 0.0916 | 0.071 | 0.0509 |  |  |  |  | 0.0785 |  | 0.0504 | 0.0605 | 0.0627
21 | T132G | 0.0902 | 0.16 |  | 0.0871 | 0.0656 | 0.0667 | 0.0803 | 0.0735 | 0.0906 | 0.0647 | 0.0621 | 0.0517 | 0.0696 | 0.0567 |  | 0.0597 | 0.0575 | 0.0582 | 0.0604 | 0.0724
22 | T132S | 0.0851 |  |  |  | 0.0504 |  |  | 0.0596 | 0.0951 |  |  |  | 0.0737 |  | 0.0807 | 0.0741 |  | 0.059 | 0.0613 | 
23 | T132Y | 0.0552 |  |  |  |  | 0.0626 | 0.0597 |  | 0.0588 | 0.0567 | 0.0651 |  | 0.0516 |  |  |  |  | 0.0453 | 0.0504 | 0.0504
24 | F133D | 0.13 | 0.104 |  | 0.0776 |  | 0.0779 | 0.0726 |  | 0.0958 | 0.0613 | 0.0995 |  |  | 0.0808 | 0.0807 | 0.115 | 0.0731 | 0.0604 | 0.0585 | 0.0767
25 | P134E | 0.0904 | 0.106 | 0.0673 |  | 0.0569 | 0.0817 |  | 0.067 | 0.102 |  | 0.061 |  |  | 0.072 | 0.0993 | 0.0575 | 0.0735 | 0.0609 | 0.0616 | 0.0613
26 | P134L | 0.059 | 0.109 |  | 0.0624 | 0.0641 | 0.0652 | 0.04 | 0.0487 | 0.0787 |  | 0.0549 | 0.0521 | 0.051 |  | 0.0472 | 0.0644 |  | 0.0798 |  | 0.0703
